# From the supplement of paper PMC8728848
# The list shows a part of the results.
# Experiments:
# Test in all cases: glycan array binding signal (z-score within array); higher = stronger binding
# Conditions in all cases: glycan notation: IUPAC condensed, linker removed
# [1] = molecular target: Gal(a1-3)Gal(b1-4)GlcNAc(b1-2)Man
# In short: (§1)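 Columns mapping to the same glycan were averaged after glycan names were converted to IUPAC-condensed notation. The data come from 3228 arrays in the Consortium for Functional Glycomics database, limited to those with an available protein sequence. Binding is reported as a within-array Z-score averaged across arrays of one protein sequence and across linkers.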
# [2] = molecular target: Gal(a1-3)Gal(b1-4)GlcNAc(b1-2)Man(a1-3)[Gal(a1-3)Gal(b1-4)GlcNAc(b1-2)Man(a1-6)]Man(b1-4)GlcNAc(b1-4)GlcNAc
# In short: as §1
# [3] = molecular target: Gal(a1-3)Gal(b1-4)GlcNAc(b1-3)GalNAc
# In short: as §1
# [4] = molecular target: Gal(a1-3)Gal(b1-4)GlcNAc(b1-6)GalNAc
# In short: as §1
# [5] = molecular target: Gal(a1-3)Gal(b1-4)[Fuc(a1-3)]GlcNAc
# In short: as §1
# [6] = molecular target: Gal(a1-3)Gal(b1-4)[Fuc(a1-3)]GlcNAc(b1-2)Man(a1-3)[Gal(a1-3)Gal(b1-4)[Fuc(a1-3)]GlcNAc(b1-2)Man(a1-6)]Man(b1-4)GlcNAc(b1-4)GlcNAc
# In short: as §1
# Gal(a1-3)GalNAc = molecular target: Gal(a1-3)GalNAc
# In short: as §1
# [7] = molecular target: Gal(a1-3)[Gal(a1-4)]Gal(b1-4)GlcNAc
# In short: as §1
# [8] = molecular target: Gal(a1-4)Gal(b1-3)GlcNAc(b1-2)Man(a1-3)[Gal(a1-4)Gal(b1-3)GlcNAc(b1-2)Man(a1-6)]Man(b1-4)GlcNAc(b1-4)GlcNAc
# In short: as §1
# Gal(a1-4)Gal(b1-4)Glc = molecular target: Gal(a1-4)Gal(b1-4)Glc
# In short: as §1
# Gal(a1-4)Gal(b1-4)GlcNAc = molecular target: Gal(a1-4)Gal(b1-4)GlcNAc
# In short: as §1
# [9] = molecular target: Gal(a1-4)Gal(b1-4)GlcNAc(b1-2)Man(a1-3)[Gal(a1-4)Gal(b1-4)GlcNAc(b1-2)Man(a1-6)]Man(b1-4)GlcNAc(b1-4)GlcNAc
# In short: as §1
# [10] = molecular target: Gal(a1-4)Gal(b1-4)GlcNAc(b1-3)Gal(b1-4)Glc
# In short: as §1
# Gal(a1-4)GlcNAc = molecular target: Gal(a1-4)GlcNAc
# In short: as §1
# Gal(a1-6)Glc = molecular target: Gal(a1-6)Glc
# In short: as §1
# Gal(b1-2)Gal = molecular target: Gal(b1-2)Gal
# In short: as §1
# Gal(b1-3)Gal = molecular target: Gal(b1-3)Gal
# In short: as §1
# Gal(b1-3)Gal(b1-4)GlcNAc = molecular target: Gal(b1-3)Gal(b1-4)GlcNAc
# In short: as §1
# Gal(b1-3)GalNAc = molecular target: Gal(b1-3)GalNAc
# In short: as §1
# [11] = molecular target: Gal(b1-3)GalNAc(a1-3)[Fuc(a1-2)]Gal(b1-4)Glc
# In short: as §1
# [12] = molecular target: Gal(b1-3)GalNAc(a1-3)[Fuc(a1-2)]Gal(b1-4)GlcNAc
# In short: as §1
# Gal(b1-3)GalNAc(b1-3)Gal = molecular target: Gal(b1-3)GalNAc(b1-3)Gal
# In short: as §1
# [13] = molecular target: Gal(b1-3)GalNAc(b1-3)Gal(a1-4)Gal(b1-4)Glc
# In short: as §1
# [14] = molecular target: Gal(b1-3)GalNAc(b1-4)Gal(b1-4)Glc
# In short: as §1
# [15] = molecular target: Gal(b1-3)GalNAc(b1-4)[Neu5Ac(a2-3)]Gal(b1-4)Glc
# In short: as §1
# Gal(b1-3)GlcNAc = molecular target: Gal(b1-3)GlcNAc
# In short: as §1
# [16] = molecular target: Gal(b1-3)GlcNAc(a1-3)Gal(b1-4)GlcNAc
# In short: as §1
# [17] = molecular target: Gal(b1-3)GlcNAc(a1-6)Gal(b1-4)GlcNAc
# In short: as §1
# Gal(b1-3)GlcNAc(b1-2)Man = molecular target: Gal(b1-3)GlcNAc(b1-2)Man
# In short: as §1
# [18] = molecular target: Gal(b1-3)GlcNAc(b1-2)Man(a1-3)[Gal(b1-3)GlcNAc(b1-2)Man(a1-6)]Man(b1-4)GlcNAc(b1-4)GlcNAc
# In short: as §1
# [19] = molecular target: Gal(b1-3)GlcNAc(b1-2)Man(a1-3)[Gal(b1-3)GlcNAc(b1-2)Man(a1-6)]Man(b1-4)GlcNAc(b1-4)[Fuc(a1-6)]GlcNAc
# In short: as §1
# [20] = molecular target: Gal(b1-3)GlcNAc(b1-2)Man(a1-3)[GlcNAc(b1-4)][Gal(b1-3)GlcNAc(b1-2)Man(a1-6)]Man(b1-4)GlcNAc(b1-4)GlcNAc
# In short: as §1
# [21] = molecular target: Gal(b1-3)GlcNAc(b1-2)[Gal(b1-3)GlcNAc(b1-6)]Man(a1-6)[Gal(b1-3)GlcNAc(b1-2)Man(a1-3)]Man(b1-4)GlcNAc(b1-4)GlcNAc
# In short: as §1
# [22] = molecular target: Gal(b1-3)GlcNAc(b1-3)Gal(b1-3)GlcNAc
# In short: as §1
# [23] = molecular target: Gal(b1-3)GlcNAc(b1-3)Gal(b1-4)Glc
# In short: as §1
# [24] = molecular target: Gal(b1-3)GlcNAc(b1-3)Gal(b1-4)GlcNAc
# In short: as §1
# [25] = molecular target: Gal(b1-3)GlcNAc(b1-3)Gal(b1-4)GlcNAc(b1-2)Man(a1-3)[Gal(b1-3)GlcNAc(b1-3)Gal(b1-4)GlcNAc(b1-2)Man(a1-6)]Man(b1-4)GlcNAc(b1-4)GlcNAc
# In short: as §1
# [26] = molecular target: Gal(b1-3)GlcNAc(b1-3)Gal(b1-4)GlcNAc(b1-2)[Gal(b1-3)GlcNAc(b1-3)Gal(b1-4)GlcNAc(b1-6)]Man(a1-6)[Gal(b1-3)GlcNAc(b1-3)Gal(b1-4)GlcNAc(b1-2)Man(a1-3)]Man(b1-4)GlcNAc(b1-4)[Fuc(a1-6)]GlcNAc
# In short: as §1
# [27] = molecular target: Gal(b1-3)GlcNAc(b1-3)Gal(b1-4)GlcNAc(b1-3)Gal(b1-4)GlcNAc(b1-2)[Gal(b1-3)GlcNAc(b1-3)Gal(b1-4)GlcNAc(b1-3)Gal(b1-4)GlcNAc(b1-6)]Man(a1-6)[Gal(b1-3)GlcNAc(b1-3)Gal(b1-4)GlcNAc(b1-3)Gal(b1-4)GlcNAc(b1-2)Man(a1-3)]Man(b1-4)GlcNAc(b1-4)[Fuc(a1-6)]GlcNAc
# In short: as §1
# [28] = molecular target: Gal(b1-3)GlcNAc(b1-3)Gal(b1-4)GlcNAc(b1-6)[Gal(b1-3)GlcNAc(b1-3)]Gal(b1-4)Glc
# In short: as §1
# [29] = molecular target: Gal(b1-3)GlcNAc(b1-3)Gal(b1-4)[Fuc(a1-3)]GlcNAc
# In short: as §1
# [30] = molecular target: Gal(b1-3)GlcNAc(b1-3)Gal(b1-4)[Fuc(a1-3)]GlcNAc(b1-6)[Gal(b1-3)GlcNAc(b1-3)]Gal(b1-4)Glc
# In short: as §1
# [31] = molecular target: Gal(b1-3)GlcNAc(b1-3)GalNAc
# In short: as §1
# [32] = molecular target: Gal(b1-3)GlcNAc(b1-6)Gal(b1-4)GlcNAc
# In short: as §1
# [33] = molecular target: Gal(b1-3)GlcNAc(b1-6)GalNAc
# In short: as §1
binder,measurement,setting,value
CBM40 CPF071 (Clostridium perfringens) (protein) MAHHHHHHVGTGSNDDDDKSPDPMLSSLGEYKDINLESSNASNITYDLEKYKNLDEGTIVVRFNSKDSKIQSLLGISNSKTKNGYFNFYVTNSRVGFELRNQKNEGNTQNGTENLVHMYKDVALNDGDNTVALKIEKNKGYKLFLNGKMIKEVKDTNTKFLNNIENLDSAFIGKTNRYGQSNEYNFKGNIGFMNIYNEPLGDDYLLSKTGETK,glycan array binding signal (z-score),[1],-0.094
same,glycan array binding signal (z-score),[2],0.206
same,glycan array binding signal (z-score),[3],-0.285
same,glycan array binding signal (z-score),[4],-0.408
same,glycan array binding signal (z-score),[5],-0.342
same,glycan array binding signal (z-score),[6],1.37
same,glycan array binding signal (z-score),Gal(a1-3)GalNAc,-0.208
same,glycan array binding signal (z-score),[7],-0.142
same,glycan array binding signal (z-score),[8],-0.281
same,glycan array binding signal (z-score),Gal(a1-4)Gal(b1-4)Glc,0.021
same,glycan array binding signal (z-score),Gal(a1-4)Gal(b1-4)GlcNAc,-0.245
same,glycan array binding signal (z-score),[9],-0.391
same,glycan array binding signal (z-score),[10],-0.285
same,glycan array binding signal (z-score),Gal(a1-4)GlcNAc,-0.515
same,glycan array binding signal (z-score),Gal(a1-6)Glc,0.075
same,glycan array binding signal (z-score),Gal(b1-2)Gal,-0.495
same,glycan array binding signal (z-score),Gal(b1-3)Gal,-0.253
same,glycan array binding signal (z-score),Gal(b1-3)Gal(b1-4)GlcNAc,-0.248
same,glycan array binding signal (z-score),Gal(b1-3)GalNAc,-0.342
same,glycan array binding signal (z-score),[11],-0.294
same,glycan array binding signal (z-score),[12],-0.311
same,glycan array binding signal (z-score),Gal(b1-3)GalNAc(b1-3)Gal,-0.112
same,glycan array binding signal (z-score),[13],0.073
same,glycan array binding signal (z-score),[14],-0.401
same,glycan array binding signal (z-score),[15],-0.402
same,glycan array binding signal (z-score),Gal(b1-3)GlcNAc,-0.326
same,glycan array binding signal (z-score),[16],-0.517
same,glycan array binding signal (z-score),[17],-0.649
same,glycan array binding signal (z-score),Gal(b1-3)GlcNAc(b1-2)Man,-0.631
same,glycan array binding signal (z-score),[18],0.26
same,glycan array binding signal (z-score),[19],-0.112
same,glycan array binding signal (z-score),[20],-0.434
same,glycan array binding signal (z-score),[21],-0.477
same,glycan array binding signal (z-score),[22],-0.437
same,glycan array binding signal (z-score),[23],-0.382
same,glycan array binding signal (z-score),[24],-0.278
same,glycan array binding signal (z-score),[25],-0.112
same,glycan array binding signal (z-score),[26],0.351
same,glycan array binding signal (z-score),[27],-0.036
same,glycan array binding signal (z-score),[28],-0.136
same,glycan array binding signal (z-score),[29],0.029
same,glycan array binding signal (z-score),[30],-0.535
same,glycan array binding signal (z-score),[31],-0.29
same,glycan array binding signal (z-score),[32],-0.426
same,glycan array binding signal (z-score),[33],-0.153
